PubChem BioAssay AID1466 (National Center for Advancing Translational Sciences (NCATS), 2008)
Out of some 200,000 compounds screened, about 10 (0.005%) were called active. Inconclusive results, whose numbers are uncertain, are shown with a selection of clear calls. Calls follow the shape of the dose curve; as a rule, active = well fitted inhibition curve with a large enough effect; inconclusive = small, poorly fitted or top-dose-only effect, or effect the other way, or another doubt; inactive = no such curve, though single readings can be large or run the other way. Potencies of inconclusive entries are left out as doubtful fits.

Biological target: Lysosomal alpha-glucosidase (Homo sapiens) (UniProt P10253)
Test: qHTS Assay for Inhibitors of Human alpha-Glucosidase as a Potential Chaperone Treatment of Pompe Disease;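 as to activity change, negative = inhibition: plate controls were uninhibited enzyme wells for no effect and no-enzyme background for full effect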
Settings: purified human GAA, 4-MU-alpha-glucoside fluorescence; activity change, negative = inhibition: at 76.9 µM (top of the series) unless noted
How it was run: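 AC50 values come from Hill fits of compound titrations (up to 77 uM) against 4 nM human enzyme. Substrate 4-methylumbelliferyl-alpha-D-pyranoside at 400 uM, pH 5.0 citrate buffer, 20 min room temperature; fluorescence Ex 365/Em 440 after alkaline stop.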
Potency is read from the fitted curve at half-maximal effect; tags tell the direction and shape of the fitted curve.

Question: How did the Potency turn out when Oc1ccc2[nH]ccc2c1 was run?
Answer: inactive

Question: Which Potency does the source give for Cc1cc(Cl)ccc1OC(C)C(=O)Nc1ccccc1N1CCOCC1 (stereo not given) here?
Answer: inconclusive [inhibitor, single point]

Question: How did the Potency turn out when CCc1nn(C(C)C(=O)N2CCc3ccccc3C2)c(=O)c2cc3occc3n12 (stereo not given) was run?
Answer: inconclusive [inhibitor, full curve, poor fit]

Question: Which activity change, negative = inhibition does the source give for COc1ccc(C(CNC(=O)c2oc3ccc(Br)cc3c2C)N2CCCCC2)cc1 (stereo not given) here?
Answer: inconclusive: -18.4% [inhibitor]

Question: For O=C(NCCC1=CCCCC1)c1cccc2c1C(=O)N(C1CCCCC1)C2, which Potency is on record?
Answer: inconclusive [inhibitor, partial curve]

Question: With COc1ccc(-c2cc3nc(-c4ccccc4)cc(N4CCC(O)CC4)n3n2)cc1 as the compound, how does the Potency read?
Answer: inconclusive [activator, single point]

Question: With O=C(CN(c1ccc(F)cc1)S(=O)(=O)c1ccc2c(c1)OCCO2)NCc1ccncc1 as the compound, how does the Potency read?
Answer: inconclusive [inhibitor, single point]

Question: With COc1ccc(NC(=O)CC2SC(=N)N(c3ccccc3)C2=O)c(OC)c1 (stereo not given) as the compound, how does the Potency read?
Answer: inconclusive [inhibitor, single point]

Question: With CS(=O)(=O)N(CC(=O)NCCSCc1c(F)cccc1Cl)c1ccc2c(c1)OCO2 as the compound, how does the activity change, negative = inhibition read?
Answer: inconclusive: -16.3% [inhibitor]

Question: With O=C(CSc1nc2ccccc2[nH]1)Nc1c(F)c(F)c(F)c(F)c1F as the compound, how does the activity change, negative = inhibition read?
Answer: inconclusive: 23.9% [activator]

Question: For O=C(CCn1nc(-c2ccccc2)c2ccccc2c1=O)N1CCN(c2ccccc2)CC1, which Potency is on record?
Answer: inconclusive [inhibitor, single point]

Question: CC(=O)NCCC(=O)N1CCCC(C(=O)c2ccc3c4c(cccc24)CC3)C1 (stereo not given) was tested. Which Potency did it give?
Answer: inconclusive [activator, single point]

Question: How did the Potency turn out when CCCS(=O)(=O)c1nc(S(=O)(=O)c2ccc(C)cc2)c(NCc2ccc3c(c2)OCO3)s1 was run?
Answer: inconclusive [inhibitor, single point]

Question: With Cc1ccc(C2C(C#N)=C(N)OC3=C2C(=O)CCC3)s1 (stereo not given) as the compound, how does the Potency read?
Answer: inconclusive [activator, single point]

Question: For O=c1cc(-c2ccc(C3CCCCC3)cc2)[nH][nH]1, which Potency is on record?
Answer: inactive

Question: With Cn1c(N)c(C(=O)COC(=O)c2ccccc2NCc2ccco2)c(=O)n(C)c1=O as the compound, how does the Potency read?
Answer: inconclusive [activator, partial curve]

Question: With CC(=O)N1CCN(Cc2nc3cc(NC(=O)c4ccccc4Cl)ccc3n2C)CC1 as the compound, how does the activity change, negative = inhibition read?
Answer: inconclusive: 17.1% [activator]

Question: Which Potency does the source give for O=C1CSC(c2ccccn2)N1c1ccc(Cl)c(Cl)c1 (stereo not given) here?
Answer: inconclusive [inhibitor, single point]

Question: Which Potency does the source give for Cc1ccc(S(=O)(=O)N2CCN(C(=O)CCC(=O)NCCc3ccc(S(N)(=O)=O)cc3)CC2)c(C)c1 here?
Answer: inconclusive [inhibitor, partial curve]

Question: For COc1ccc(CCNC(=O)CSc2nc(-c3ccc(OC)c(OC)c3)ccc2C#N)cc1, which Potency is on record?
Answer: inconclusive [activator, partial curve]

Question: How did the Potency turn out when CC1CCc2c(nc3ncnn3c2NCCc2ccccc2F)C1 (stereo not given) was run?
Answer: inactive

Question: CCOC(=O)N1CCC(N2Cc3cccc(C(=O)Nc4ccc(OC)c(OC)c4)c3C2=O)CC1 was tested. Which activity change, negative = inhibition did it give?
Answer: inactive: -0.961% [at 15.4 µM]

Question: With Cc1ccc(-n2cc(CNCCn3nc(C)cc3C)c(-c3ccc(F)cc3)n2)cc1 as the compound, how does the Potency read?
Answer: inconclusive [inhibitor, single point]

Question: CCOC(=O)c1c(C)[nH]c2c1cc(O)c1ccccc12 was tested. Which Potency did it give?
Answer: inactive

Question: With COc1ccccc1-c1nnc2sc(COc3ccc(Cl)cc3)nn12 as the compound, how does the Potency read?
Answer: inconclusive [inhibitor, full curve]

Question: For O=C(NC1=NCCS1)c1ccc(Cl)c(S(=O)(=O)N2CCCCC2)c1, which Potency is on record?
Answer: inconclusive [inhibitor, partial curve]

Question: How did the activity change, negative = inhibition turn out when CCOC(=O)C1(CC2CCCCO2)CCN(S(=O)(=O)c2cc(C)cs2)CC1 (stereo not given) was run?
Answer: inconclusive: 16.5% [activator]

Question: For COc1ccc(F)cc1CN1CCN(c2cc(C)nc3c4c(C)cc(C)nc4nn23)CC1, which Potency is on record?
Answer: inconclusive [activator, partial curve]

Question: With CCOC(=O)C1=C(N)OC(C)=C(C#N)C1c1ccco1 (stereo not given) as the compound, how does the Potency read?
Answer: inconclusive [inhibitor, single point]

Question: With COc1ccc(/C=N/NC(=O)CNC(=O)c2ccc(S(=O)(=O)N3CCOCC3)cc2)c(OC)c1 as the compound, how does the Potency read?
Answer: inconclusive [inhibitor, single point]

Question: For O=C(NCCCN1CCOCC1)NC1CCCCC1, which Potency is on record?
Answer: inconclusive [inhibitor, single point]

Question: Which activity change, negative = inhibition does the source give for CN(C)c1ccc(-c2nnn(CC(=O)Nc3ccccc3N3CCOCC3)n2)cc1 here?
Answer: inconclusive: -17.7% [inhibitor]

Question: For Nc1c(C(=O)NCc2ccccc2)c2nc3ccccc3nc2n1CCCN1CCOCC1, which Potency is on record?
Answer: inconclusive [activator, single point]

Question: Which Potency does the source give for CC(C)c1csc(CN2CCN(Cc3ccc(F)cc3)C(CCO)C2)n1 (stereo not given) here?
Answer: inconclusive [inhibitor, partial curve, poor fit]

Question: CC(C)N1CC=C2C(C#N)=C(N)C(C#N)(C#N)[C@H](c3ccoc3)[C@H]2C1 was tested. Which Potency did it give?
Answer: inconclusive [activator, single point]

Question: For CCOC(=O)c1cc2c(nc1N)CC(C)(CC)OC2 (stereo not given), which Potency is on record?
Answer: inconclusive [activator, single point]

Question: Which Potency does the source give for Cc1ccc(-c2nnc(N3CCOCC3)c3ccccc23)cc1S(=O)(=O)NCC1CCCO1 (stereo not given) here?
Answer: inconclusive [inhibitor, partial curve]

Question: With Cc1cccc(C)c1NC(=O)C(c1cccs1)N(Cc1ccco1)C(=O)Cn1nnc2ccccc21 (stereo not given) as the compound, how does the activity change, negative = inhibition read?
Answer: inconclusive: -15.3% [inhibitor]

Question: CCOC(=O)c1cnc2ccc(C(=O)OC)cc2c1NCCN1CCOCC1 was tested. Which activity change, negative = inhibition did it give?
Answer: inconclusive: -20.7% [inhibitor]

Question: How did the Potency turn out when CCN(CC)C(=S)Nc1cc(C(=O)OC)ccc1C(=O)OC was run?
Answer: inconclusive [activator, single point]

Question: With O=[N+]([O-])c1cc(-c2cnc3ccccc3n2)ccc1Oc1ccc(F)cc1 as the compound, how does the Potency read?
Answer: inconclusive [inhibitor, single point]

Question: How did the Potency turn out when CCOc1ccc2c(c1)C(=NNC(=O)c1ccncc1)c1cc(OCC)ccc1-2 was run?
Answer: inconclusive [inhibitor, single point]

Question: For O=C(c1ccco1)N1CCCN(Cc2nc(-c3cccs3)no2)CC1, which Potency is on record?
Answer: inconclusive [inhibitor, partial curve]

Question: For CCSc1nnc(CNc2ccc(C)cc2)n1C, which Potency is on record?
Answer: inconclusive [inhibitor, single point]

Question: COc1ccc(-c2cc(C(F)F)n3ncc(C(=O)n4ccnc4C)c3n2)cc1 was tested. Which Potency did it give?
Answer: inconclusive [activator, single point]

Question: Cc1ccc(O)c(C(=O)/C=C/c2ccc3c(c2)OCCCO3)c1 was tested. Which Potency did it give?
Answer: inconclusive [activator, single point]

Question: How did the activity change, negative = inhibition turn out when COc1ccc(OCC(=O)Nc2nc3ccc(NC(C)=O)cc3s2)cc1 was run?
Answer: inconclusive: 13.3% [activator]

Question: Which activity change, negative = inhibition does the source give for Cc1cc(C)cc(NC(=S)Nc2ccc3cn[nH]c3c2)c1 here?
Answer: inconclusive: -15.7% [inhibitor]

Question: How did the Potency turn out when Cc1cccn2c(=O)c3cc(C(=O)NCCN4CCOCC4)c(=N)n(CCc4ccccc4)c3nc12 was run?
Answer: inconclusive [activator, single point]

Question: For COC(=O)CC1COc2ccccc2N1C(=O)c1ccc(OC)cc1 (stereo not given), which Potency is on record?
Answer: inconclusive [inhibitor, single point]

Question: For CCCCOc1ccc(C(=O)N/C(=C\c2ccc(OC)cc2)C(=O)OCc2ccco2)cc1, which activity change, negative = inhibition is on record?
Answer: inconclusive: -18.2% [inhibitor]

Question: For CC(C)C(NC(=O)c1ccc(C(C)(C)C)cc1)C(=O)O (stereo not given), which activity change, negative = inhibition is on record?
Answer: inconclusive: 15.5% [activator]

Question: Which Potency does the source give for CCCCC(=O)Nc1cc(N(C)C)nc2ccccc12 here?
Answer: inconclusive [activator, single point]

Question: How did the Potency turn out when Cc1ccc(N=Cc2ccc[nH]2)c(O)c1 was run?
Answer: inactive

Question: For COCCn1c(=S)[nH]c2cc(C(=O)NCCc3ccc(OC)c(OC)c3)ccc2c1=O, which Potency is on record?
Answer: inconclusive [inhibitor, partial curve, poor fit]

Question: For Cc1ccc(NCc2nnc(SCCN3CCCCC3)n2CC2CCCO2)cc1Cl (stereo not given), which Potency is on record?
Answer: inconclusive [inhibitor, partial curve, poor fit]

Question: For CCCOCCOC(=O)C1=C(C)NC(=O)NC1c1cc(Cl)c(O)c(OC)c1 (stereo not given), which activity change, negative = inhibition is on record?
Answer: inconclusive: 16.6% [activator]

Question: How did the Potency turn out when COc1ccc(C(=O)C(OC(=O)c2ccc(C)c(NC(C)=O)c2)c2ccccc2)cc1 (stereo not given) was run?
Answer: inconclusive [inhibitor, single point]

Question: Which Potency does the source give for Fc1cccc2sc(Nc3nc4cc5c(cc4s3)OCCO5)nc12 here?
Answer: inconclusive [activator, partial curve]

Question: O=c1[nH]c2cc3c(cc2cc1CN(Cc1cccnc1)C(=S)NCc1ccco1)OCO3 was tested. Which activity change, negative = inhibition did it give?
Answer: inconclusive: 15.5% [activator]

Question: With COc1ccc(CC(=O)NC2=NCCS2)cc1 as the compound, how does the Potency read?
Answer: inconclusive [inhibitor, single point]

Question: For C(=Nc1cccc2c(N=Cc3ccco3)cccc12)c1ccco1, which Potency is on record?
Answer: inactive

Question: How did the Potency turn out when O=C(CN1CCCc2ccccc21)NCCc1ccc(Cl)cc1 was run?
Answer: inconclusive [inhibitor, partial curve, poor fit]

Question: C=CCNc1nc(N2CCCC2)nc2ccccc12 was tested. Which activity change, negative = inhibition did it give?
Answer: inconclusive: 55.7% [activator]

Question: Which Potency does the source give for CC(C)c1nc(C(=O)N2CCc3c([nH]c4ccccc34)C2c2ccccn2)cs1 (stereo not given) here?
Answer: inconclusive [inhibitor, single point]
